Data reported in the supplement of paper PMC9151546.
± gives the standard deviation of the averaged measurements. Most values come without repeats; read them as rough.

Legend:
[1] = tested on: CHO-K1; assay: relative survival (nuclei to bead ratio vs DMSO control) (% of vehicle control); higher = more surviving cells
Procedure: (§1)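 Flow-cytometric in vitro micronucleus assay (Litron MicroFlow) in CHO-K1 cells in 96-well plates, 19 concentrations (4.5-200 µM, n=1 per concentration). Without S9, cells were exposed for 24 h and sampled at 48 h. With Aroclor 1254-induced rat liver S9, cells were exposed for 3-4 h and sampled at 27-28 h. Read-outs are %MN and %hypodiploid nuclei relative to nucleated events, and relative survival as the nuclei-to-bead ratio versus the 1% DMSO vehicle control (x100).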

[2] = tested on: CHO-K1; assay: hypodiploid nuclei frequency (% of nucleated events); higher = more hypodiploid events (aneugenic)
Procedure: as §1

[3] = tested on: CHO-K1; assay: micronucleus frequency (% of nucleated events); higher = more micronuclei (genotoxic)
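Throughout, for hypodiploid nuclei frequency (% of nucleated events): hypodiploid nuclei gated on a flow cytometer with 488 nm excitation after SYTOX Green staining, cultures at 37 °C, positive controls vinblastine without S9 and cyclophosphamide with S9.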
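Throughout, for micronucleus frequency (% of nucleated events): cells lysed with nuclei stained by SYTOX Green, then micronucleus-gated events counted against nucleated events by flow cytometry with 488 nm excitation.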
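Throughout, for relative survival (nuclei to bead ratio vs DMSO control): Lysed-cell nuclei stained with SYTOX Green and counted against counting beads by flow cytometry at 488 nm excitation, with vinblastine (no S9) and cyclophosphamide (plus S9) as positive controls.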

Oc1cc(Cl)ccc1Oc1ccc(Cl)cc1Cl [Triclosan]
Settings | hypodiploid nuclei frequency, [2] [%] | micronucleus frequency, [3] [%] | relative survival, [1]
concentration: 4.5 (µM), S9 metabolic activation: with S9, exposure time: 3-4 hours | 0.38 ± 0.028 | 1.15 ± 0.099 | 121 ± 54
concentration: 4.5 (µM), S9 metabolic activation: without S9, exposure time: 24 hours | 6.23 ± 7.9 | 2.33 ± 0.18 | 100 ± 35
concentration: 5.63 (µM), S9 metabolic activation: with S9, exposure time: 3-4 hours | 0.38 ± 0.057 | 1.16 ± 0.4 | 109 ± 39
concentration: 5.63 (µM), S9 metabolic activation: without S9, exposure time: 24 hours | 3.36 ± 3.6 | 1.99 ± 0.099 | 96.3 ± 24
concentration: 7.04 (µM), S9 metabolic activation: with S9, exposure time: 3-4 hours | 0.38 ± 0.028 | 1.61 ± 0.13 | 108 ± 33
concentration: 7.04 (µM), S9 metabolic activation: without S9, exposure time: 24 hours | 1.44 ± 1.1 | 1.75 ± 0.042 | 101 ± 13
concentration: 8.8 (µM), S9 metabolic activation: with S9, exposure time: 3-4 hours | 0.42 ± 0.057 | 1.71 ± 0.49 | 113 ± 29
concentration: 8.8 (µM), S9 metabolic activation: without S9, exposure time: 24 hours | 1.89 ± 1.9 | 1.77 ± 0.33 | 114 ± 18
concentration: 11 (µM), S9 metabolic activation: with S9, exposure time: 3-4 hours | 0.24 ± 0.057 | 1.45 ± 0.41 | 119 ± 39
concentration: 11 (µM), S9 metabolic activation: without S9, exposure time: 24 hours | 1.48 ± 1.1 | 2.52 ± 0.4 | 110 ± 32
concentration: 13.7 (µM), S9 metabolic activation: with S9, exposure time: 3-4 hours | 0.28 ± 0.085 | 1.24 ± 0.028 | 113 ± 24
concentration: 13.7 (µM), S9 metabolic activation: without S9, exposure time: 24 hours | 1.49 ± 1.4 | 1.86 ± 0.45 | 99.8 ± 20
concentration: 17.2 (µM), S9 metabolic activation: with S9, exposure time: 3-4 hours | 0.26 ± 0.085 | 1.61 ± 0.81 | 105 ± 23
concentration: 17.2 (µM), S9 metabolic activation: without S9, exposure time: 24 hours | 1.07 ± 0.89 | 2.27 ± 1.4 | 96.8 ± 8.4
concentration: 21.5 (µM), S9 metabolic activation: with S9, exposure time: 3-4 hours | 0.29 ± 0.071 | 1.55 ± 0.75 | 95.9 ± 10
concentration: 21.5 (µM), S9 metabolic activation: without S9, exposure time: 24 hours | 1.18 ± 0.17 | 2.54 ± 0.028 | 80.1 ± 10
concentration: 26.8 (µM), S9 metabolic activation: with S9, exposure time: 3-4 hours | 0.34 ± 0.11 | 1.69 ± 0.49 | 104 ± 18
concentration: 26.8 (µM), S9 metabolic activation: without S9, exposure time: 24 hours | – | – | 50.1 ± 19
concentration: 33.6 (µM), S9 metabolic activation: with S9, exposure time: 3-4 hours | 0.21 ± 0.071 | 1.77 ± 0.86 | 113 ± 6.9
concentration: 33.6 (µM), S9 metabolic activation: without S9, exposure time: 24 hours | 7.37 ± 9.2 | 2.47 ± 0.38 | 58 ± 21
concentration: 41.9 (µM), S9 metabolic activation: with S9, exposure time: 3-4 hours | 0.26 ± 0.028 | 1.77 ± 0.18 | 97.6 ± 18
concentration: 41.9 (µM), S9 metabolic activation: without S9, exposure time: 24 hours | 5.17 ± 6.1 | 2.1 ± 0.4 | 61.6 ± 6.8
concentration: 52.4 (µM), S9 metabolic activation: with S9, exposure time: 3-4 hours | 0.2 | 1.51 ± 0.18 | 87.7 ± 3
concentration: 52.4 (µM), S9 metabolic activation: without S9, exposure time: 24 hours | 2.72 ± 2.6 | 1.58 ± 0.11 | 57.5 ± 12
concentration: 65.5 (µM), S9 metabolic activation: with S9, exposure time: 3-4 hours | 0.35 ± 0.014 | 2.26 ± 0.34 | 84.5 ± 12
concentration: 65.5 (µM), S9 metabolic activation: without S9, exposure time: 24 hours | 2.55 ± 2.7 | 1.08 ± 0.23 | 57.1 ± 4.8
concentration: 81.9 (µM), S9 metabolic activation: with S9, exposure time: 3-4 hours | – | – | 36 ± 18
concentration: 81.9 (µM), S9 metabolic activation: without S9, exposure time: 24 hours | 2.83 ± 2.6 | 1.15 ± 0.3 | 52.9 ± 10
concentration: 102 (µM), S9 metabolic activation: with S9, exposure time: 3-4 hours | – | – | 1.89
concentration: 102 (µM), S9 metabolic activation: without S9, exposure time: 24 hours | – | – | 41.2 ± 3.7
concentration: 128 (µM), S9 metabolic activation: with S9, exposure time: 3-4 hours | – | – | 0.13 ± 0.13
concentration: 128 (µM), S9 metabolic activation: without S9, exposure time: 24 hours | – | – | 21.1 ± 18
concentration: 160 (µM), S9 metabolic activation: with S9, exposure time: 3-4 hours | – | – | 0.02
concentration: 160 (µM), S9 metabolic activation: without S9, exposure time: 24 hours | – | – | 0.9 ± 0.82
concentration: 200 (µM), S9 metabolic activation: with S9, exposure time: 3-4 hours | – | – | 0.05 ± 0.042
concentration: 200 (µM), S9 metabolic activation: without S9, exposure time: 24 hours | – | – | 0.09 ± 0.057

O=[N+]([O-])c1ccc(Oc2ccc(Cl)cc2Cl)cc1 [Nitrofen]
Settings | hypodiploid nuclei frequency, [2] [%] | micronucleus frequency, [3] [%] | relative survival, [1]
concentration: 4.5 (µM), S9 metabolic activation: with S9, exposure time: 3-4 hours | 0.26 | 0.92 | 125
concentration: 4.5 (µM), S9 metabolic activation: without S9, exposure time: 24 hours | 1.12 | 1.56 | 103
concentration: 5.63 (µM), S9 metabolic activation: with S9, exposure time: 3-4 hours | 0.3 | 1.26 | 111
concentration: 5.63 (µM), S9 metabolic activation: without S9, exposure time: 24 hours | 0.88 | 1.42 | 88.8
concentration: 7.04 (µM), S9 metabolic activation: with S9, exposure time: 3-4 hours | 0.14 | 0.98 | 116
concentration: 7.04 (µM), S9 metabolic activation: without S9, exposure time: 24 hours | 0.86 | 2 | 107
concentration: 8.8 (µM), S9 metabolic activation: with S9, exposure time: 3-4 hours | 0.18 | 1.54 | 112
concentration: 8.8 (µM), S9 metabolic activation: without S9, exposure time: 24 hours | 0.76 | 1.42 | 101
concentration: 11 (µM), S9 metabolic activation: with S9, exposure time: 3-4 hours | 0.22 | 1.72 | 111
concentration: 11 (µM), S9 metabolic activation: without S9, exposure time: 24 hours | 0.78 | 2.24 | 99.8
concentration: 13.7 (µM), S9 metabolic activation: with S9, exposure time: 3-4 hours | 0.22 | 1.22 | 126
concentration: 13.7 (µM), S9 metabolic activation: without S9, exposure time: 24 hours | 0.72 | 1.9 | 105
concentration: 17.2 (µM), S9 metabolic activation: with S9, exposure time: 3-4 hours | 0.22 | 1.14 | 102
concentration: 17.2 (µM), S9 metabolic activation: without S9, exposure time: 24 hours | 0.52 | 1.32 | 93.8
concentration: 21.5 (µM), S9 metabolic activation: with S9, exposure time: 3-4 hours | 0.14 | 0.98 | 131
concentration: 21.5 (µM), S9 metabolic activation: without S9, exposure time: 24 hours | 0.72 | 1.52 | 89.8
concentration: 26.8 (µM), S9 metabolic activation: with S9, exposure time: 3-4 hours | 0.3 | 1.58 | 142
concentration: 26.8 (µM), S9 metabolic activation: without S9, exposure time: 24 hours | 0.72 | 1.54 | 83.7
concentration: 33.6 (µM), S9 metabolic activation: with S9, exposure time: 3-4 hours | 0.18 | 0.96 | 126
concentration: 33.6 (µM), S9 metabolic activation: without S9, exposure time: 24 hours | 0.72 | 2 | 87.2
concentration: 41.9 (µM), S9 metabolic activation: with S9, exposure time: 3-4 hours | 0.34 | 0.8 | 128
concentration: 41.9 (µM), S9 metabolic activation: without S9, exposure time: 24 hours | 0.82 | 1.5 | 101
concentration: 52.4 (µM), S9 metabolic activation: with S9, exposure time: 3-4 hours | 0.24 | 0.66 | 93.5
concentration: 52.4 (µM), S9 metabolic activation: without S9, exposure time: 24 hours | 0.68 | 1.5 | 93.8
concentration: 65.5 (µM), S9 metabolic activation: with S9, exposure time: 3-4 hours | 0.04 | 0.9 | 105
concentration: 65.5 (µM), S9 metabolic activation: without S9, exposure time: 24 hours | 1.04 | 1.9 | 88.5
concentration: 81.9 (µM), S9 metabolic activation: with S9, exposure time: 3-4 hours | 0.26 | 1.1 | 99.7
concentration: 81.9 (µM), S9 metabolic activation: without S9, exposure time: 24 hours | 1.02 | 2.32 | 85.9
concentration: 102 (µM), S9 metabolic activation: with S9, exposure time: 3-4 hours | 0.26 | 0.86 | 57.5
concentration: 102 (µM), S9 metabolic activation: without S9, exposure time: 24 hours | 0.78 | 2.48 | 73.3
concentration: 128 (µM), S9 metabolic activation: with S9, exposure time: 3-4 hours | 0.26 | 0.68 | 86
concentration: 128 (µM), S9 metabolic activation: without S9, exposure time: 24 hours | 1.32 | 2.9 | 59.8
concentration: 160 (µM), S9 metabolic activation: with S9, exposure time: 3-4 hours | 0.3 | 1.24 | 62.6
concentration: 160 (µM), S9 metabolic activation: without S9, exposure time: 24 hours | 1.06 | 2.56 | 58.3
concentration: 200 (µM), S9 metabolic activation: with S9, exposure time: 3-4 hours | 0.24 | 1.1 | 56.8
concentration: 200 (µM), S9 metabolic activation: without S9, exposure time: 24 hours | 1.32 | 2.62 | 47.5
